The source of these data is PubChem BioAssay AID1508642 (National Center for Advancing Translational Sciences (NCATS), 2021).

The structures appear in SMILES notation. The whole screen tested about 43,000 compounds, of which about 200 (0.47%) were called active. Inconclusive results (about 12%) are left out. Calls follow the shape of the dose curve; as a rule, active = well fitted cell-killing curve with a large enough effect; inconclusive = small, poorly fitted or top-dose-only effect, or effect the other way; inactive = flat fitted curve, though single readings scatter. Some of the results follow.
% is scaled to controls: 0 for no effect and ±100 for the full control effect.

This assay can be described thus: Cell viability qHTS assay in S16 Pmp22-F2sN cells. Also: nearly all actives have a fitted effect of over 65% in size. Particulars: S16 Pmp22-F2sN Schwann cells (luciferase reporters placed in the Pmp22 gene) viability, CellTiter-Glo, 24 h; series mostly up to 57.5 µM; activity change, negative = cytotoxicity: at the top concentration. In outline:
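Luminescence from CellTiter-Glo, read by CCD camera after a 15 min room-temperature incubation, served as the viability signal. Reporter Schwann cells (S16 Pmp22-F2sN) had been treated with pin-transferred compounds for 24 h at 37C.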
For orientation: Quantitative high-throughput screening tests each substance at several concentrations.
With `Cn1c(SCC(=O)N2CCOCC2)ncc(C(=O)Nc2ccccc2)c1=O`, the “activity change, negative = cytotoxicity” value is inactive: 0.293%.
Turning to `CC1=C(C(=O)NCc2ccccc2Cl)C2(CCCCCC2)OC1=O`, the “activity change, negative = cytotoxicity” value was inactive: -13.6%.
With `Cc1ccc2c(CNCC(C)c3ccccc3)c(C(=O)O)n(Cc3ccccc3C)c2c1` (stereo not drawn) the figure was inactive: 8.69%; with `COc1ccc(NC(=O)c2ccc3c(c2)N(Cc2cccc(Cl)c2)C(=O)c2ccccc2S3=O)cc1Cl` (stereo not drawn), inactive: -18.3%; with `CC1CCN(c2nc3c(S(=O)(=O)c4ccccc4)nnn3c3ccc(Cl)cc23)CC1`, inactive: -19.5%.
The figure for `CCc1ccc(NC(=O)CCn2c(-c3ccc(OC)cc3)cc(C(C)=O)c2C)cc1` is inactive: -5.92%; for `CC(=O)c1cccc(NC(=O)CN2C(=O)c3ccccc3Sc3ncccc32)c1` it is inactive: 2.14%; for `Cc1c(C)n(Cc2ccccc2)c2ccc(C(=O)NCc3ccccc3F)cc12` it is inactive: -10.2%.
The figure for `O=C(c1cnn(-c2cccc(F)c2)c1-n1cccc1)N1CCN(c2ccccc2F)CC1` is inactive: -3.25%; for `COc1ccccc1NC(=O)NCCCN1CCN(c2ccc(F)cc2)CC1` it is inactive: 0.797%.
With `Cc1ccc(N2C(=O)CC(c3ccccc3F)C3=C2COC3=O)cc1Cl` (stereo not drawn), the “activity change, negative = cytotoxicity” value is inactive: 13.9%.
Regarding `CCc1ccccc1NC(=O)Cn1c(=O)n(Cc2ccco2)c(=O)c2ccccc21`, the “activity change, negative = cytotoxicity” value was inactive: 6.8%.
With `COc1ccc(-c2c(C#N)c(SCC(=O)Nc3cccc(Cl)c3)nc(C)c2C(=O)Nc2ccccc2)cc1OC` the figure was inactive: 2.17%; with `CCc1nnc2c(N3CCN(c4cccc(C)c4)C(C)C3)nc3ccccc3n12` (stereo not drawn), inactive: 14%.
For the molecule `Cc1cccc(S(=O)(=O)Nc2cccc(-c3ccc(N4CCCCC4)nn3)c2)c1`, the “activity change, negative = cytotoxicity” value was inactive: 0.295%.
The figure for `CCN(CC)C(=O)Cn1c(=O)n(-c2ccc(Cl)c(Cl)c2)c(=O)c2c(C)c(C(=O)N(CC)CC)sc21` is inactive: -13.1%; for `COc1ccc(CCNC(=O)Cc2c(C)c3cc4c(C(C)(C)C)coc4c(C)c3oc2=O)cc1OC` it is inactive: -28.8%; for `Cc1cc(C)c2c(c1)NC(=O)C2(O)c1c[nH]c2ccccc12` (stereo not drawn) it is inactive: -1.31%.
With `Cc1ccc2c(c1)cc1c(=O)n(Cc3cccc(Cl)c3)nc(C)n12` the figure was inactive: 5.85%; with `COc1ccc(Nc2oc(-c3ccc(COc4cccc(C)c4)o3)nc2C#N)cc1`, inactive: -3.74%; with `COC(=O)c1cc(NC(=O)CCc2c(C)nc3c(c(C)nn3C(C)(C)C)c2C)cc(C(=O)OC)c1`, inactive: -7.18%.
The figure for `Cn1nnnc1SCCCNCc1ccc(Cl)cc1` is inactive: -0.798%.
On to `Cc1ccc(C(=O)N(Cc2ccco2)Cc2sccc2C)cc1`, for which the “activity change, negative = cytotoxicity” value is inactive: -2.94%.
In the case of `CC1CCc2onc(C(=O)N3CCN(c4ccccc4)CC3)c2C1` (stereo not drawn), the “activity change, negative = cytotoxicity” value was inactive: -0.176%.
For the molecule `O=C(COc1ccccc1F)Nc1ccccc1C(=O)OCc1cc(=O)n2nc(C3CC3)sc2n1`, the “activity change, negative = cytotoxicity” value is inactive: 6.73%.
With `O=C(NCc1ccc(Cl)cc1)c1cc2c(s1)-c1ccccc1SC2` the figure was inactive: 16%.
Consider `O=C(Nc1cc(Cl)ccc1Cl)c1cc(S(=O)(=O)NCCc2ccccc2)ccc1F`, for which the “activity change, negative = cytotoxicity” value is inactive: -9.23%.
The figure for `Cc1nc(N2CCOCC2)c2c(C(=O)N3CCN(c4ccccc4F)CC3)c(C)oc2n1` is inactive: -1.87%; for `Cc1ccc(CN2COc3ccc4c(C)cc(=O)oc4c3C2)cc1` it is inactive: 3.35%.
With `CCN1CCN(c2ncc3c(n2)CCN(Cc2cc(Br)cs2)C3)CC1` the figure was inactive: -12.2%; with `CCC(C)NC(=O)c1cc2cc(S(=O)(=O)N3CCCCC3)ccc2n1C` (stereo not drawn), inactive: -19.3%; with `Cc1c(O)nc(SCC(=O)Nc2ccc(Cl)cc2Cl)n(-c2ccc(F)cc2)c1=O`, inactive: 3.93%.
In the case of `O=C(NCC(c1ccc2c(c1)OCO2)N1CCOCC1)c1ccccc1` (stereo not drawn), the “activity change, negative = cytotoxicity” value was inactive: 5.97%.
Regarding `Cc1nn(C)c2c1c(C(F)(F)F)cc(=O)n2CC(=O)NCc1ccc(OC(C)C)cc1`, the “activity change, negative = cytotoxicity” value is inactive: -21.9%.
For the molecule `CCC(C)c1ccc(OCC(=O)Nc2cccc3ccc(C)nc23)cc1` (stereo not drawn), the “activity change, negative = cytotoxicity” value is inactive: 0.252%.
In the case of `Cc1ccc(CNS(=O)(=O)c2ccc(N3CCCCS3(=O)=O)cc2)cc1`, the “activity change, negative = cytotoxicity” value was inactive: -26.7%.
Take `O=C(CNC(=O)c1ccc(Cl)cc1)OCc1cc(=O)n2nc(C3CC3)sc2n1`: the “activity change, negative = cytotoxicity” value is inactive: -4%.
In the case of `Cc1cn(C)c(CC(=O)NCc2cccc(Cl)c2)c1C(=O)O`, the “activity change, negative = cytotoxicity” value was inactive: -0.461%.
In the case of `CC(C)(C)c1ccc(S(=O)(=O)N2CCC(Oc3ccc(-n4cnnn4)cc3)CC2)cc1`, the “activity change, negative = cytotoxicity” value was inactive: 4.45%.
Consider `COc1cc(Cn2c(=O)oc3ccc(C)cc32)ccc1OCCC(C)C`, for which the “activity change, negative = cytotoxicity” value is inactive: -23.4%.
With `CC(C)(C)c1ccc(CSC2=Nc3ccccc3C3=NC(CC(=O)NCc4cccs4)C(=O)N23)cc1` (stereo not drawn), the “activity change, negative = cytotoxicity” value is inactive: -3.46%.
Consider `CN1c2ccc(Cl)cc2-c2nc(SCC(=O)NCc3ccc(F)cc3)ncc2S1(=O)=O`, for which the “activity change, negative = cytotoxicity” value was inactive: 5.89%.
`CC1=C(C(=O)Nc2ccc(C)cc2C)C(c2ccccc2)n2nc(SCC(=O)c3ccc(C)cc3)nc2N1` (stereo not drawn): the “activity change, negative = cytotoxicity” value is inactive: -1.63%.
For `O=C(CSc1nc2ccsc2c(=O)n1Cc1ccc(F)cc1)NCc1ccc(Cl)cc1`, the “activity change, negative = cytotoxicity” value was inactive: -2.52%.
With `COc1ccc(NC(=O)Cn2c(=O)oc3ccccc32)cc1` the figure was inactive: 5.86%; with `CCc1ccccc1NC(=O)CCNS(=O)(=O)c1ccc2c(c1)CCCC(=O)N2`, inactive: 6.66%.
The figure for `COc1cccc2sc(NC(=O)c3ccc4c(c3)OCCO4)nc12` is inactive: 2.77%; for `CCc1nc2ccc(C(=O)N3CCN(c4ccccc4F)CC3)cc2nc1CC` it is inactive: -25.8%; for `Cc1ccc(Cl)cc1N1CCN(C(=O)Cn2cnc3onc(-c4ccc(F)cc4)c3c2=O)CC1` it is inactive: -6.02%.
For the molecule `CC(=O)c1ccc(NC(=O)Cn2nc(C(F)(F)F)c3c2CCC3)cc1`, the “activity change, negative = cytotoxicity” value was inactive: -4.76%.
As for `Cc1ccc(CSc2c(C)cnc3c2c(=O)n(C)c(=O)n3C)cc1`, the “activity change, negative = cytotoxicity” value is inactive: 1.18%.
The figure for `CCCCNC(=O)CCC1N=C2c3ccccc3N=C(SCC(=O)NCCc3ccc(OC)c(OC)c3)N2C1=O` (stereo not drawn) is inactive: 5.73%; for `Cc1ccc2nc(-c3ccc(NC(=O)Cc4ccccc4)cc3)sc2c1` it is inactive: -2.98%.
The figure for `CCN(CC)CCNC(=O)CCn1c(=O)c2cccn2c2cccnc21` is inactive: 9.9%.
With `Cc1ccc(CNC(=O)CCNS(=O)(=O)c2ccc3c(c2)oc(=O)n3C)cc1`, the “activity change, negative = cytotoxicity” value is inactive: 8.7%.
With `O=C(COc1ccc(Br)cc1Br)Nc1ccc(S(=O)(=O)Nc2ncccn2)cc1` the figure was inactive: -2.69%.
Take `Cc1cc(C)c(S(=O)(=O)Nc2ccc3oc(C)c(C(=O)OC(C)C)c3c2)cc1C`: the “activity change, negative = cytotoxicity” value was inactive: -0.568%.
The figure for `Cc1oc(-c2cccc(Cl)c2)nc1CN1CCC(C(=O)NC(C)C)CC1` is inactive: 5.61%; for `Cc1ccc(Cl)cc1NC(=O)Cn1c(=O)cc(C)c2c(C)nn(C)c21` it is inactive: 19.4%; for `Cc1ccc(NC(=O)CC2Oc3ccc(C)cc3NC2=O)c(C)c1` (stereo not drawn) it is inactive: -2.78%.
In the case of `CCOc1ccc(NC(=O)Cn2c(=O)n(CCc3ccccc3)c(=O)c3c4c(sc32)CCCC4)cc1`, the “activity change, negative = cytotoxicity” value is inactive: 10.3%.
The figure for `COc1cccc(Nc2nnc(-c3cc4ccc(O)cc4oc3=O)s2)c1` is inactive: 4.31%.
Turning to `O=C(CCn1c(=O)c2sccc2n(Cc2ccc(F)cc2)c1=O)NCc1ccc2c(c1)OCO2`, the “activity change, negative = cytotoxicity” value is inactive: 13.1%.
